Data: the supplement of paper PMC11417369
This is one part of the list.

system: PfHDP1 homeodomain (GST-tagged); experiment: gcPBM binding intensity (ln(normalized median fluorescence intensity)); higher = stronger DNA binding
Outline: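 GST-fused DNA-binding domains of P. falciparum, expressed in E. coli, were applied at about 25 μg on average for 1 h to an Agilent 4 × 180k array of primer-extended double-stranded 36-bp intergenic genomic probes and negative controls. Binding intensity is the highest Masliner-normalised natural-log median intensity across replicate spots of either probe orientation, measured with Alexa488 anti-GST antibody and a 488 nm scan.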

| Sequence | gcPBM binding intensity (ln) |
| --- | --- |
| ATATTTATCTTTTTATGTACATATGCCCCTTTTCTG [XGTACX_site673] | 6.96 |
| TCTTGGTTATTAAAAAAAAAAAAATATATTTTTCCT [TGCATGCA_negctrl_site445] | 6.06 |
| GTCCTTATGGATGATAAATTATTTTAAATATTCTAT [XGTACX_negctrl_site200] | 5.96 |
| ATTCACTAAAAAATTGCATGCAATAAATTTTTTTTT [TGCATGCA_site962] | 6.5 |
| TTTTATTGTTGTTATACACACCATATAAAATATTTC [CACACA_site4983] | 6.79 |
| AATTGATTTATATATTGTACATATAAATTTATGTAT [XGTACX_site7785] | 6.23 |
| TAATTGTACGCCAATACACACAGAATTAGAATGTAG [CACACA_site102] | 6.59 |
| ATAAATAAATGGTGTTGTACTCTATTATATATATAT [XGTACX_site7835] | 8.31 |
| AATAAATATAGATTCACACACAAACATATATAAATA [CACACA_site7814] | 6.62 |
| AAAAAAAAAATATATATATATATATATATATAATTT [GTGCAC_negctrl_site32] | 7.25 |
| AAGAAAAAAATTTATACAAGAATTTTTTATTATTAA [TGCATGCA_negctrl_site587] | 5.99 |
| TCATATGTTTCATGTTGTACATTGAAAGTTTGGCTA [XGTACX_site3202] | 6.26 |
| AAATATGTACATATTATATATATATAATATATATTG [TGCATGCA_negctrl_site438] | 6.43 |
| GTTCTAATATATTGCACACGTAAAAATATAGGTAAT [CACACA_site886] | 10.6 |
| TGTTAATTAAAGGACTGTACACTAATAATTCTATAA [XGTACX_site5195] | 6.17 |
| TTAAAAAGTGCGTAGTGTACTAATATAAATAATACA [XGTACX_site2922] | 6.47 |
| TGAATAAATATATATACACACCCATATATATATATA [CACACA_site8833] | 9.21 |
| AATGTATATAATATTAATATGTAAATATATAATCAA [CACACA_negctrl_site1683] | 6.39 |
| AAATAAAAACCATATCGTACAAAAATTTTTGTATTT [XGTACX_site7497] | 6.27 |
| ATATATATATATATATGTACTTAAAAATTTGTTTTG [XGTACX_site1514] | 9.38 |
| GATCACTGAATAAAGGCACACATCTGACTAATTTTT [CACACA_site66] | 6.23 |
| AAGTCAATTTTTTTTTTTTTTTTTTAACTTATTAAT [TGCATGCA_negctrl_site14] | 5.85 |

| Sequence | gcPBM binding intensity (ln) |
| --- | --- |
| ATTATTATATATATAACACACATAATTATATACTTA [CACACA_site1563] | 6.83 |
| TATACCTATAAATACACACACATATATAAATATGTA [CACACA_site6625] | 6.68 |
| TCCTTAAAAATCTAAAAAGAAAAAAACATATATTTT [GTGCAC_negctrl_site123] | 6.04 |
| ATATTTAAATCGAAGGTGCGTATTTCCTTTTTTTTT [GTGCAC_site9632] | 6.31 |
| CTCATCCTTACATACACACACATATATATATATATA [CACACA_site103] | 9.2 |
| ATTCATTTCTATTTTACACACAATAAGTAACTTAAT [CACACA_site2850] | 6.84 |
| AGTATAAATAAATCATAAACATATATATATATATAT [GTGCAC_negctrl_site356] | 9.35 |
| ATATATACATATAACACACACATATATATATATATA [CACACA_site2575] | 9.18 |
| TTTATTTATTATTAAAGTACTAAATCATATTATTAT [XGTACX_site992] | 6.04 |
| TATACATTATCTTATGCATGCGCATCTGCATATAAA [TGCATGCA_site266] | 7.31 |
| TTTTCTTTTTTCTGTTGTACTAAAAATAATTTTGTA [XGTACX_site5171] | 6.51 |
| CCACTAATAAATATTACACACATATATATATATATT [CACACA_site3128] | 6.84 |
| TATTTATATATTATGTGTCCACATGTAAGCTATCTT [XGTACX_site3887] | 6.37 |
| AACATATACCCAGGTACATGCAAATATATATATTAT [TGCATGCA_site878] | 6.86 |
| ATATATATATATATGTGTACACAACAAAATAAAAAA [XGTACX_site7378] | 9.25 |
| TTTAAAAATTAATTCTGTACACATTTTTATTTTATT [XGTACX_site8] | 6.61 |
| TTCTTTCTTCAAAAGTGTACCAAATGTTAGAAAGGT [XGTACX_site4353] | 7.28 |
| AAAAAAATAACAAAATGTATACAATATAACAAAAAT [GTGCAC_negctrl_site512] | 7.03 |
| ATGACATGTTCTAAATGTACATTTTTTAACCCTTTT [XGTACX_site1858] | 6.69 |
| ATAAATAAATAAGTACATATATATATGTATATATAT [TGCATGCA_negctrl_site223] | 7.34 |
| TATACAAGTATATAGGTGCATATATAAGTATATATT [GTGCAC_site9994] | 9.55 |
| TATGGTTACATTATATGTACTAAACGAATATTTTTA [XGTACX_site5694] | 6.05 |

| Sequence | gcPBM binding intensity (ln) |
| --- | --- |
| TAATAACATACAGACACACACGTAAAAGCACGTGTA [CACACA_site4299] | 6.34 |
| TACTTTCAAAAGATCACACATATATATATATATATA [CACACA_site5630] | 9.53 |
| ATTATAATGTTAATGTGTACATATGATTCCTTAATT [XGTACX_site181] | 6.92 |
| TATGTTTTTACATATTGTACATATTCTTGTAATACG [XGTACX_site1179] | 6.29 |
| TATGTGTGCAAAAACTGTACACATTAAAGGTATATA [XGTACX_site7627] | 10.3 |
| TTTTTAACCAAACATCAAAACATATTTTTTTGTTAT [CACACA_negctrl_site385] | 6.36 |
| GTATACCTTTTGACATGTACGTATGTATATTTGGGT [XGTACX_site720] | 6.67 |
| CATACATACAAACACACACACACACCCATATATATA [CACACA_site2918] | 7.05 |
| TTCTCAAAATTAAAATAACAGATTAACGAACTAACG [CACACA_negctrl_site1720] | 6.35 |
| TAATATATATATATATGTACATATATATTATGTATA [XGTACX_site4690] | 6.36 |
| AGATTATTTAGAATGTGTACATATTACACATACATG [XGTACX_site8634] | 6.58 |
| ACTACATTATGTCATACATGCATACATACGTGGTTT [TGCATGCA_site732] | 6.51 |
| AGTAATTTAAGGAATACACACAAGAAAAAAATAAGA [CACACA_site6177] | 7.26 |
| CATTAAAAGTATAATTGTACTTTTCATTTATATATT [XGTACX_site7536] | 6.27 |
| TGGTAAAGGAGCAAGATGATAAATCTCCATAACTTT [CACACA_negctrl_site492] | 6.28 |
| ATGTCTATAATAAGAACACACATATATTTAATTTAA [CACACA_site7394] | 6.26 |
| TATATATATATGTATACACACATACAAATATGTAAA [CACACA_site9238] | 9.02 |
| GTTGGTACCTTACTTTTACACACTTTTTTTTTTTTT [CACACA_site8441] | 6.51 |
| CTATATTCGTTTAATAGTACATATATAACTAGACAA [XGTACX_site5770] | 6.6 |
| AAAAGAAATATTTATACACACACACTAACATATATA [CACACA_site8580] | 7.04 |
| TTATATATAATTACATGTACGTAGTATTATTTAAAT [XGTACX_site3418] | 6.51 |
| TTATCATTTTAATGGTGTACTCAATAAAAACTTTAA [XGTACX_site4595] | 6.05 |

| Sequence | gcPBM binding intensity (ln) |
| --- | --- |
| GTGAAAAAAAACATATGTACTTATACACTAATCTAT [XGTACX_site7600] | 6.56 |
| AAAAAAAAAAAACACACACACACATAAATATATATA [CACACA_site149] | 7.01 |
| TGTAAATTTGGCATCACACATAAATAAACATATAAA [CACACA_site4497] | 6.65 |
| TATTAACATATATAAAGTACATTAAACAACATTGTA [XGTACX_site7667] | 6.44 |
| TACACAAGCGGACACACACACATATATATATATATA [CACACA_site4832] | 9.37 |
| AACATTCTAAAACACACACACACATATATATATATA [CACACA_site1052] | 9.25 |
| TTTTCACTTTTAAAAACATGCATACTTTATAAAATA [TGCATGCA_site967] | 6.65 |
| TATATATAAAAAAGCACACATACATACATACATAAT [CACACA_site890] | 6.85 |
| ATAAAAAAAATTTGCACACCTTCAAAGTAATATATA [CACACA_site1584] | 10.2 |
| AAAAAAAAAAAAAGTACATGCAATATGGATCTTAAA [TGCATGCA_site367] | 6.48 |
| TAATTTTTTTTTTTTTTTTTTGTACTTCATTTTTAT [CACACA_negctrl_site1395] | 5.93 |
| CATATAAAAGGACACACACACACATATAAATATGTA [CACACA_site6568] | 6.59 |
| ATTTTTATAGAATGAACACACATATTATAGCATTTA [CACACA_site6842] | 6.33 |
| TGCTATTTTATTTATTCTTTTATAAAAGTATAATAT [XGTACX_negctrl_site358] | 6.62 |
| ATGTAATTATAAGATTAATATACATAATTATATGTA [GTGCAC_negctrl_site458] | 6.13 |
| AACATACATGTATATAGTACATATTACATCTGATAC [XGTACX_site3649] | 6.27 |
| TACACAAGAAAATTCACACACACACCCATATATATA [CACACA_site3879] | 6.97 |
| CATAGATACATACACGCACACACATATATATATATA [CACACA_site13] | 9.24 |
| GTATTACCTTATTATTGTACTTTCATGATATATATG [XGTACX_site5382] | 6.91 |
| TTAATGAATGGACACACACACATATATATATATATT [CACACA_site5294] | 6.76 |
| TATTTAATTATTTGTAGTACGATTAATATTTAATGA [XGTACX_site3553] | 6.13 |
